# Assay results taken from ChEMBL document CHEMBL4888484, “Replenishing the malaria drug discovery pipeline: Screening and hit evaluation of the MMV Hit Generation Library 1 (HGL1) against asexual blood stage Plasmodium falciparum ,using a nano luciferase reporter read-out” (2022).
# Screen size: about 150,000 compounds; about 540 (0.36%) showed an effect of 50% or more. Some of the results follow.
# Test system: Plasmodium falciparum
# Experiment: Primary screen in NF54 nanoGlo assay, in single point, at 2uM, 72h; a lower Z score goes with more inhibition
# Format: functional, Erythrocyte
# Settings: timepoint 72 hour
SMILES,% Inhibition,Z score
O=C(c1ccc(=O)n(Cc2ccc(F)cc2)n1)N1CCCCC1,7%,-0.96
OC1CCCC1N1CCc2ccccc2C1 (stereo not drawn),-14%,2.59
O=S(=O)(NC1CC2CCC1C2)c1ccc2ccccc2c1 (stereo not drawn),-9%,1.27
CCOC(=O)c1cnn(-c2cccc(NC(=O)c3ccc4ncsc4c3)c2)c1C(F)(F)F,-5%,0.53
O=C1CN(C(=O)[C@]2(c3ccccc3)CCCO2)Cc2ccccc2N1,8%,-1.12
C=CC[N+]1(CC#CCOC(c2ccccc2)c2ccccc2)CCOCC1,-5%,0.65
CN(C(=O)[C@@H]1CCCO1)C1CCCCCC1,-6%,0.83
CC1(C)CCN(C(=O)c2ccc3c(c2)CCCC3=O)CCS1(=O)=O,-5%,0.62
O=C(c1ccc2c(c1)CCC2)N1CCC(CN2CCCC2)CC1,9%,-1.61
C[C@@H](C1CC1)N(C)C(=O)Cc1ccc(F)cc1F,3%,-0.47
CCN(CC)c1cc(CCC(=O)NCc2cccc(OC)c2OC)ccn1,18%,-2.13
CN(CCn1cccn1)[C@@H](C(=O)O)c1c(F)cccc1Cl,9%,-1.11
COc1cc(C2Nc3ccc(C)cc3[C@H]3OCC[C@@H]23)cc(Cl)c1OC (stereo partly drawn),-1%,0.2
CC(C)n1ccnc1CN1CCC2(CCC(=O)N(Cc3cccnc3)C2)CC1,-7%,1.02
Cn1ncc2c(=O)[nH]c(N3CCC[C@H]3c3ncc[nH]3)nc21,-5%,0.95
CC(C)(C)OC(=O)NCCN(CCO)C(=O)c1ccccc1OC(F)F,2%,-0.34
FC(F)Cn1ccc(NCc2cnsc2)n1,6%,-0.92
COc1ccc(C[C@@H](Cc2ccc3c(c2)OCO3)NC(=O)c2cccc(Cl)c2)cc1,-3%,0.63
Cc1cccc(C)c1NC(=O)Cc1csc(-n2nc(C)c(Cl)c2C)n1,-12%,2.22
CO[C@@H](C)CS(=O)(=O)Nc1csnc1-c1ccccc1,-4%,0.63
Cc1ncc(CO)c(CN(Cc2ccco2)C(C)(C)CO)c1O,-3%,0.29
O=C(CN1C(=O)c2cc(Cl)c(Cl)cc2C1=O)NC1CCCCC1,-6%,0.83
c1cncc(-c2n[nH]cc2CNCCc2ccsc2)c1,-1%,0.14
O=C(CC[C@@H]1NC(=O)c2ccccc2NC1=O)NCc1nc(-c2ccncc2)no1,-9%,1.1
CC(NC(=O)[C@@H]1CCC(=O)N1)c1cc(Cl)cc(Cl)c1F (stereo partly drawn),2%,-0.25
CCc1ccc(CN2CC[C@H](CNC(=O)N3CCOCC3)[C@@H](O)C2)nc1,-6%,1.2
O=C(O)c1nn(CCCc2ccccc2)c2c1CN(C(=O)c1cccnc1)CC2,-9%,1.3

SMILES,% Inhibition,Z score
CC(C)Cc1nsc(N2CCO[C@H](c3cccs3)C2)n1,7%,-1.09
Cc1sc(C)c(S(=O)(=O)N2CCN(c3ccccc3)CC2)c1-c1cc(C(F)(F)F)on1,-10%,1.63
O=C(Nc1nc(-c2ccc3c(c2)OCO3)cs1)c1ccc(-n2cnnn2)cc1,-16%,2.99
Cc1cnn(CCCNC(=O)N(C)[C@@H](C)c2cc(-c3ccccc3)[nH]n2)c1,-4%,0.67
CNC(=O)c1cc(S(=O)(=O)c2ccc3[nH]c(Nc4cccc(C(F)(F)F)c4)nc3c2)ccn1,0%,0.05
O=C1OCC2(CCN(C/C=C/c3ccc(F)cc3)CC2)O1,-2%,0.27
COc1cccc(NC(=O)CN2CCC[C@H](Cc3noc(C)n3)C2)c1,-15%,1.77
CC1(C(=O)NC2CC(F)(F)C2)COC1,-11%,1.34
CN1CCN(C(=O)CC[C@@H]2NC(=O)N(c3cccc4ccccc34)C2=O)CC1,5%,-0.58
O=C1NC(=O)C2(CCN(C(=O)c3cccs3)CC2)N1,-10%,1.55
CCC(=O)N1CC[C@H](NC(=O)c2cc(COC)on2)C1,2%,-0.3
Cc1ccc(C(C)C)c(OC(=O)Cn2c(=O)sc3cccc(Cl)c32)c1,-11%,1.53
Cc1cccc(C(=O)N2CCC[C@H]2c2nn(C)c(=O)n2Cc2ccccc2)c1,0%,-0.09
CCNC(=O)[C@H]1Cc2ccccc2CN1C(=O)c1ccccc1OC(F)F,-3%,0.41
CCN(CC)CC(=O)N[C@@H](C)c1ccccc1,-7%,1.29
CCc1ccc(Nc2nc3ccccc3c(=O)n2-c2cccc(C)c2C)cc1,-13%,2.24
Cc1cc(C(F)(F)F)nc(N[C@H]2CCCC[C@H]2n2cc(CO)nn2)n1,11%,-1.41
Cc1cc(C)n([C@@H](C)CNC(=O)Nc2cn(C)nn2)n1,-8%,0.91
CCCc1cc(C(=O)N(C)CC(CC)(CC)CO)n(C)n1,0%,0.04
CCOCc1nc([C@H](C)n2nc(C)cc2C)n(C2CCN(C)CC2)n1,15%,-2.1
O=C(NCCc1ccco1)c1[nH]nc2c1COc1ccccc1-2,-10%,1.81
CC(C)c1nnc(CN(C)CCCc2nccn2C)o1,3%,-0.53
CC[C@@H](Cc1ccc(C(F)(F)F)cc1)C(=O)NCc1ccnn1C,-17%,1.67
CC(=O)Nc1cccc(NC(=O)c2cc3c(s2)CCCCCC3)c1,-8%,0.66
Cc1cc(CNC(=O)[C@@H]2[C@@H](c3ccccc3)N(C)C(=O)[C@@H]2O)no1,-5%,0.46
O=C(NCc1cccnc1)c1ccc2c(c1)NC(=O)c1ccccc1N2,-1%,0.24
O=C1NC2(CCO1)CN(C(=O)CC1CC3CCC1C3)C2 (stereo not drawn),-18%,2.36
